# Measurements as given in the RNAGym collection of RNA variant scans (doi:10.1073/pnas.2313332121).
# Variants at the floor of the assay are shown more often than the library holds them.
# B1: TPR 5TU (parent)
# chain: GGAUCUUCUCGAUCUAACAAAAAAGACAAAUCUGCCACAAAGCUUGAGAGCAUCUUCGGAUGCAGAGGCGGCAGCCUUCGGUGGCGCGAUAGCGCCAACGUUCUCAACUAUGACACGCAAAACGCGUGCUCCGUUGAAUGGAGUUUAUCAUG
# Variants of: B1
# Assay: polymerase ribozyme fitness, log enrichment relative to wild type (log ratio); higher = more active; in vitro selection for triplet polymerase activity
# Method in brief: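 Libraries of mutants in each subunit of a heterodimeric triplet polymerase ribozyme were generated by PCR and transcribed. In triplicate, each went through one in vitro selection round: annealing with biotinylated primer, partner subunit and triplets; frozen incubation at −7 °C; gel excision of extended constructs; streptavidin-bead capture; RT-PCR. Fitness, taken from Illumina sequencing of input and output libraries, is the logarithm of a genotype's enrichment over wild-type enrichment, averaged across replicates with inverse-variance weights. The logarithm is base 2, and genotypes needed ≥10 input reads and ≥1 read per output to be kept.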
row,Variant,polymerase ribozyme fitness (log ratio)
1,C27U C63U C87A G141U,≤ -4.2
2,C27U C76U,-1.42
3,C27U C87A,≤ -4.2
4,C27U C87U G140C,≤ -4.2
5,C27U C95U U102A,-2.66
6,C27U C99G G133U G141A C149G,≤ -4.2
7,C27U C114U U151G,≤ -4.2
8,C27U G34C C93A G117A,≤ -4.2
9,C27U G48A G128A,≤ -4.2
10,C27U G48C C85U A97G G140C A142C,≤ -4.2
11,C27U G48U G67A G94A,≤ -4.2
12,C27U G50C U53A G92C U104G,≤ -4.2
13,C27U G58A G70A C76A C93U,≤ -4.2
14,C27U G58C U139C,≤ -4.2
15,C27U G84A,-1.66
16,C27U G92U,-1.78
17,C27U G92U G100A A106C G124C A138G,≤ -4.2
18,C27U U31A A52C C54U C93G,≤ -4.2
19,C27U U31A G48U C85U,-2.25
20,C27U U31C A52C U78C U101A C125G,≤ -4.2
21,C27U U31C U77G G126U U135A,≤ -4.2

row,Variant,polymerase ribozyme fitness (log ratio)
1,C27U U33G G68C C69U C76U C95A C103U A110C G133A U139G,≤ -4.2
2,C27U U44A G46A U56G G84U A106U,≤ -4.2
3,C27U U45A G48C G50A C63U G92C,≤ -4.2
4,C27U U53A C85A A110G U135G,≤ -4.2
5,C27U U53A G67U C87G,≤ -4.2
6,C27U U53A G80U C87G A121U,≤ -4.2
7,C27U U55A G70C A91U A97U A106G,≤ -4.2
8,C27U U55C G94U C108U,≤ -4.2
9,A28C A29U A30U C85U C99G A121G U148A,≤ -4.2
10,A28C A29U A107U A115G,≤ -4.2
11,A28C A30C A40U A47C G48U A91U,≤ -4.2
12,A28C A41C G84C C93U C118G C123G,≤ -4.2
13,A28C A52G C87A C103G U104G G117C A138U,≤ -4.2
14,A28C A52U U55G C87G C125U G152A,≤ -4.2
15,A28C A60G A110U,≤ -4.2
16,A28C A73C U78G G86C A110U A113U A137C A138U,≤ -4.2
17,A28C A106G C129G U151C,≤ -4.2
18,A28C C32A C35A U55A G84U U104G G143A U148A,≤ -4.2
19,A28C C32U A39C G46C U53A C96U A122G A137G,≤ -4.2
20,A28C C35G C69A C72A G126A,≤ -4.2
21,A28C C35U A49C C116U C118A,≤ -4.2

row,Variant,polymerase ribozyme fitness (log ratio)
1,A28C C35U G42C C76U A91U C108A A110G,≤ -4.2
2,A28C C38A A49U U56A C118U,≤ -4.2
3,A28C C38U A39U C57A,≤ -4.2
4,A28C C38U G70C A142U,≤ -4.2
5,A28C C43A G62A C69G C93G C95G,≤ -4.2
6,A28C C43U A52C C54A C123U,≤ -4.2
7,A28C C43U U56A A107C,≤ -4.2
8,A28C C54G C79G C85G U145A,≤ -4.2
9,A28C C57U G74A C103U A113U,≤ -4.2
10,A28C C93U,-4.16
11,A28C C93U A120G U134A G141C,≤ -4.2
12,A28C C96A G124A G143C,≤ -4.2
13,A28C G34A A41C C123G A138U G140U G152A,≤ -4.2
14,A28C G59A C87U,≤ -4.2
15,A28C G68U C76A U77C G80A,≤ -4.2
16,A28C G70A C76A G83A C87U C96U U135G,≤ -4.2
17,A28C G71U G74U U78A C99A,≤ -4.2
18,A28C G86U,≤ -4.2
19,A28C G86U A120G,≤ -4.2
20,A28C G88A,≤ -4.2
21,A28C U31A U53A,≤ -4.2

row,Variant,polymerase ribozyme fitness (log ratio)
1,A28C U31C U77A C93U A98G G117A,≤ -4.2
2,A28C U31G A41U G65A C85G G88U C96U C103U U135G,≤ -4.2
3,A28C U31G C125G,≤ -4.2
4,A28C U61A C96G U104G G128C G143C,≤ -4.2
5,A28C U61G G67A C69A C93G A113U G124U,≤ -4.2
6,A28G A29C C54U A60C U61C G68C C93U,≤ -4.2
7,A28G A29G C75G C87U U111G,≤ -4.2
8,A28G A29G G58A G81A G92U A120C G126A U145A U148A,≤ -4.2
9,A28G A29U A52C G68A G81C G100U A142U,≤ -4.2
10,A28G A29U C43G A47C G84U A110U,≤ -4.2
11,A28G A29U G65A A73U,≤ -4.2
12,A28G A30U C69U C87G,≤ -4.2
13,A28G A30U U45A C54U C76G C96A,≤ -4.2
14,A28G A37C A64U U77G C85G G133A,≤ -4.2
15,A28G A41C U44C G84C C95U C105G G117U U139G G141U C149A,≤ -4.2
16,A28G A47U A60G,≤ -4.2
17,A28G A66C G92U C118U U135G,≤ -4.2
18,A28G A91C C116U A120G U127G,≤ -4.2
19,A28G A107G U144C,≤ -4.2
20,A28G A138C C149A,≤ -4.2
21,A28G C32U G86C A115G U144G,≤ -4.2
